# About 2,600 (0.72%) of roughly 360,000 compounds were called active. Inconclusive means that the source gave no clear call. Such entries were picked first, then a sample of the others. Calls come from the whole dose curve; as a rule, active = well fitted inhibition curve with a large enough effect; inconclusive = small, poorly fitted or top-dose-only effect; inactive = no such curve, though single readings can be large or run the other way. Potencies of inconclusive entries are doubtful fits and often do not repeat.
# Assay: Primary qHTS for Inhibitors of ATXN expression; note: nearly all actives have a fitted effect of over 55% in size
# Conditions: HEK-293 ATXN2-luciferase reporter, luminescence, 24 h; activity change, negative = inhibition: at 57 µM (top of the series)
# Summary of the method: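 qHTS (up to 57 uM final) was run with 24 h compound exposure of reporter cells at 37 °C. Each well was multiplexed: SteadyGlo luminescence measured ATXN2-luciferase expression after a fluorogenic Gly-Phe-AFC viability readout (25 uM final).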
# % is set by controls: 0 for no effect and ±100 for the full control effect; potency is the fitted concentration of half-maximal effect; tags give direction and shape of the fitted curve.
SMILES,"activity change, negative = inhibition",Potency
O=c1c(Cc2ccc(F)cc2)c(O)ccn1CCc1ccccn1,inactive: -13.7%,–
C=C(CCC(=O)c1ccccc1)C(=O)c1ccccc1,–,"inconclusive: 35.5 µM [inhibitor, single point]"
CCN1CCCC1CNC(=O)C(=O)Nc1cccc(OC)c1 (stereo not drawn),inactive: 11.1%,–
C[C@H]1CCC(=O)N([C@H](COc2ccccc2)Cc2ccccc2)CC1,–,"inconclusive: 31.6 µM [inhibitor, single point]"
Cc1ccc2oc(-c3ccc(Cl)c(NC(=O)c4ccc(OC(C)C)cc4)c3)nc2c1,inactive: 72%,–
CCCCCCC[C@@H](C/C=C/CCC(=O)N(C)C/C(=C/Cl)C/C(=C\C(=O)N1C[C@H](O)CC1=O)OC)OC,–,"inconclusive: 39.8 µM [inhibitor, single point]"
Cc1ccc(-c2cc(C(F)(F)F)nn2-c2ccc(S(N)(=O)=O)cc2)cc1,–,"inconclusive: 24.3 µM [inhibitor, partial curve, poor fit]"
Oc1ccc(N2CCN(c3ncnc4sc(-c5ccccc5)cc34)CC2)cc1,–,"inconclusive: 16.8 µM [inhibitor, partial curve, poor fit]"
CC(C)(C)OC(=O)NCCCCCNC(=O)c1[nH]cnc1C(=O)N[C@@H](Cc1ccccc1)C(=O)OC(C)(C)C,–,"inconclusive: 39.8 µM [inhibitor, single point]"
O=C1N[C@@H](Cc2ccccc2)COC(=O)[C@@H](Cc2ccc(F)cc2)CC/C=C/C[C@H]1CC(=O)N(CCO)Cc1ccccc1,–,"inconclusive: 39.8 µM [inhibitor, single point]"
COc1ccc(NC(=O)C(=O)NCCC2CCCCN2S(=O)(=O)c2cccs2)cc1 (stereo not drawn),–,"inconclusive: 14.1 µM [inhibitor, partial curve, poor fit]"
COc1ccc(CN2C[C@H]3CCCN3c3cc(Br)ccc3S2(=O)=O)cc1,inactive: -6.8%,–
COc1ccc(-c2cc(=O)oc3c4c(ccc23)OCN(Cc2cccc(OC)c2)C4)cc1,inactive: -28.6%,–
Cc1ccc(-c2oc3ccccc3c(=O)c2O)cc1,–,"inconclusive: 39.8 µM [inhibitor, single point]"
O=C(CSc1ncnc2nc[nH]c12)N1CCN(c2ccc(Cl)cc2)CC1,–,"inconclusive: 28.2 µM [inhibitor, partial curve, poor fit]"
Cc1cc(C)c(C(=O)COc2cccnc2[N+](=O)[O-])cc1C,inactive: 6.57%,–
O=C(Nc1ccc2c(c1)nc1n2CCSC1)c1ccco1,–,"inconclusive: 14.1 µM [inhibitor, partial curve, poor fit]"
CC1CCN(C(=O)C2CCN(C(=O)c3cc4sccc4n3Cc3ccc(F)cc3)CC2)CC1,–,"inconclusive: 35.5 µM [inhibitor, single point]"
CCN1/C(=C/c2ccc3cc(C)ccc3[n+]2CC)Sc2cc(C)ccc21,–,"inconclusive: 9.47 µM [inhibitor, partial curve, poor fit]"
CCOC(=O)c1ccc(NC(=O)c2ccc(C)c(S(=O)(=O)N3CCOCC3)c2)cc1,–,active: 25.1 µM
O=C(NCC(c1cccs1)N1CCc2ccccc21)c1ccccc1 (stereo not drawn),inactive: 2.67%,–
O=C1C(=Cc2ccco2)CCC1=Cc1ccco1,inactive: 2.01%,–

SMILES,"activity change, negative = inhibition",Potency
Cc1ccc(C)c(-n2c(-c3csc(C)c3)n[nH]c2=S)c1,inactive: 0.135%,–
N/C(=N\OC(=O)Nc1ccccc1)c1ncc([N+](=O)[O-])s1,–,"inconclusive: 8.91 µM [inhibitor, partial curve, poor fit]"
COc1ccc(C2c3[nH]c4ccc(OC)cc4c3CCN2C(=O)Nc2ccccc2)cc1 (stereo not drawn),inactive: -23.5%,–
Cc1ccc(C(=O)Nc2cccc(C(=O)O)c2)cc1S(=O)(=O)N1CCOCC1,–,"inconclusive: 31.6 µM [inhibitor, single point]"
CCOC(=O)c1cnc2ccc(OC)cc2c1Nc1ccc2c(c1)OCCO2,–,"inconclusive: 12.6 µM [inhibitor, partial curve, poor fit]"
O=C(OCc1cn([C@H]2CN(CC3CCCCC3)[C@@H](c3ccc(Cl)cc3)C[C@@H]2O)nn1)c1ccccc1,–,"inconclusive: 31.6 µM [inhibitor, single point]"
COc1ccccc1Cc1c(-c2ccc(OC)c(OC)c2)nc2ccc(Br)cn12,–,"inconclusive: 39.8 µM [inhibitor, single point]"
O=C(/C=C/c1cn(CC(O)CN2CCCCCC2)c2ccccc12)c1ccc(Br)cc1 (stereo not drawn),–,"inconclusive: 39.8 µM [inhibitor, single point]"
O=C(N/N=C/c1cccs1)c1n[nH]c2c1CCC2,–,"inconclusive: 20 µM [inhibitor, single point]"
CN1CCN(c2ccc(CNC(=O)C3Cc4c(-c5ccccc5Oc5ccccc5)ccnc4O3)cc2)CC1 (stereo not drawn),–,"inconclusive: 25.1 µM [inhibitor, single point]"
CSc1ncc(Cl)c(C(=O)Nc2ccc(C)c(C)c2)n1,inactive: -8.35%,–
COc1ccc(SC[C@H](Cc2ccccc2)N2CC[C@@H](C(C)(C)C)CCC2=O)cc1,inactive: -35.6%,–
Cc1cc(Cl)c(C(=O)Nc2cccc(C(F)(F)F)c2)c(C)n1,–,"inconclusive: 26.7 µM [inhibitor, partial curve, poor fit]"
COc1cccc(C(=O)Nc2c3c(nn2-c2ccc(Cl)cc2)CS(=O)(=O)C3)c1,inactive: -6.41%,–
N=c1c2c(n(Cc3ccc(Cl)cc3)c3c1CCC3)CCC2,–,"inconclusive: 12.6 µM [inhibitor, partial curve]"
COc1cc(OC)cc(-c2cc3nc(C)c(CCC(=O)NC(C)CCc4ccco4)c(C)n3n2)c1 (stereo not drawn),–,"inconclusive: 28.2 µM [inhibitor, single point]"
CN1c2ccccc2N(C)C1c1ccc2c(c1)OCO2,inactive: -6.36%,–
COc1ccc(-c2csc(N(CCCN(C)C)C(=O)c3ccc(C(C)(C)C)cc3)n2)cc1,inactive: -8.26%,–
C/C(N=Nc1nc2ccccc2s1)=N\Nc1ccccc1O,–,"inconclusive: 35.5 µM [inhibitor, single point]"
O=C(NCCc1csc2nc(-c3cccc(F)c3)nn12)c1ccc(Br)o1,inactive: -30.7%,–
CCN1CCN(c2ccc(NC(=O)CCc3c(C)nc4c(-c5ccccc5)c(C)nn4c3C)cc2)CC1,–,"inconclusive: 15.8 µM [inhibitor, partial curve, poor fit]"
